# The other results are listed elsewhere or left out.
# B1: rEtpA (Escherichia coli) (protein)
# chain: MNRIYKLKFDKRRNELVVVSEITTGVGNAKATGSVEGEKSPRRGVRAMALSLLSGMMIMAHPAMSANLPTGGQIVAGSGSIQTPSGNQMNIHQNSQNMVANWNSFDIGKGNTVQFDQPSSSAVALNRVVGGGESQIMGNLKANGQVFLVNPNGVLFGEGASVSTSGFVASTRDIKNDDFMNRRYTFSGGQKAGAAIVNQGELTTNAGGYIVLAADRVSNSGTIRTPGGKTVLAASERITLQLDNGGLMSVQVTGDVVNALVENRGLVSARDGQVYLTALGRGMLMNTVLNVSGVVEASGMHRQDGNIVLDGGDSGVVHLSGTLQADNASGQGGKVVVQGKNILLDKGSNITATGGQGGGEVYVGGGWQGKDSNIRNADKVVMQGGARIDVSATQQGNGGTAVLWSDSYTNFHGQISAKGGETGGNGGRVETSSHGNLQAFGTVSASAKKGKAGNWLLDSADITIVNGSNVSKTETTQSPPHTQFAPTAAGSAVSNTSINNRLNNGTSVTILTHRTRTGTAQGGNITVNAAINKSNGSDVNLTLQAGGNITVNNSITSTEGKLNVNLSGARTSNGSITISNNANITTNGGDITVGTTNTSNRVNISINNTTLNASNGNIQLTGTGTDSGILFAGNNRLTASNIALTGNSTSGNAINLTGTATLNATNNITLTGSSTSGNAINLKGNNTLTASNITLTGESTSGNAINLTDTTGTTTLNATNNITMQGTRVQIKHSNITAGNFALNATVAGSEISNTTLTATNNINLAAKTNSASSGVYLKDARITSTNGSITANGTATANGKATHLDGNVTLNASNGRIKLTGNGHGSASGILFAGNNRLTASNIALTGNSTSGNAINLTGTATLNATNDITLTGSSTSGNAINLTGTATLNATNNITLTGSSTSGNAINLKGNNTLTASNITLTGESTSGNAINLTDTTGTTTLNATNNITMQGTRVQIKHSNITAGNFALNATVAGSEISNTTLTATNNINLAAKTNSASSGVYLKDARITSTNGSITANGTATANGKATHLDGNVTLNASNGRIKLTGNGHGSASGILFAGNNRLTASNIALTGNSTSGNAINLTGTATLNATNDITLTGSSTSGNAINLTGTATLNATNNITLTGSSTSGNAINLKGNNTLTASNITLTGESTSGNAINLTDTTGTTTLNATNNITMQGTRVQIKHSNITAGNFALNATVAGSEISNTTLTATNNINLAAKTNSASSGVYLKDARITSTNGSITANGTATANGKATHLDGNVTLNASNGRIKLTGNGHGSASGILFAGNNRLTASNIALTGNSTSGNAINLTGTATLNATNDITLTGSSTSGNAINLTGTATLNATNNITLTGSSTSGNAINLKGNNTLTASNITLTGESTSGNAINLTDTTGTTTLNATNNITMQGTRVQIKHSNITAGNFALNATVAGSEISNTTLTATNNINLAAKTNSASSGVYLKDARITSTNGSITTNGTATANGKATHLDGNVTLNASNGRIKLTGNGHGSASGILFAGNNRLTASNIALTGNSTSGNAINLTGTATLNATNDITLTGSSTSGNAINLTGTATLNATNNITLTGSSTSGNAINLKGNNTLTASNITLTGESTSGNAINLTDTTGTTTLNATNNITMQGTRVQIKHSNITAGNFALNATVAGSEISNTTLTATNNINLAAKTNSASSGVYLKDARITSTNGSITANGTAPANDNATYLDGNVTLNASNGSIKLTGNGNGSTSGILFAGNNTLTASNITLTGNSEVYWQKLGPEQKLISEEDLNSAVDHHHHHH
# Tests used:
# Test in all cases: glycan array binding signal (z-score within array); higher = stronger binding
# Settings in all cases: glycan notation: IUPAC condensed, linker removed
# [1] = target: Fuc(a1-2)[Gal(a1-3)]Gal(b1-4)GlcNAc(b1-2)Man(a1-3)[Fuc(a1-2)[Gal(a1-3)]Gal(b1-4)GlcNAc(b1-2)Man(a1-6)]Man(b1-4)GlcNAc(b1-4)[Fuc(a1-6)]GlcNAc
# Method in brief: (§1)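 Columns mapping to the same glycan were averaged after glycan names were converted to IUPAC-condensed notation. The data come from 3228 arrays in the Consortium for Functional Glycomics database, limited to those with an available protein sequence. Binding is reported as a within-array Z-score averaged across arrays of one protein sequence and across linkers.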
# [2] = target: Fuc(a1-2)[Gal(a1-3)]Gal(b1-4)GlcNAc(b1-3)GalNAc
# Method in brief: as §1
# [3] = target: Fuc(a1-2)[Gal(a1-3)]Gal(b1-4)GlcNAc(b1-3)[Fuc(a1-2)[Gal(a1-3)]Gal(b1-4)GlcNAc(b1-6)]GalNAc
# Method in brief: as §1
# [4] = target: Fuc(a1-2)[Gal(a1-3)]Gal(b1-4)GlcNAc(b1-6)GalNAc
# Method in brief: as §1
# [5] = target: Fuc(a1-2)[Gal(a1-3)]Gal(b1-4)[Fuc(a1-3)]Glc
# Method in brief: as §1
# [6] = target: Fuc(a1-2)[Gal(a1-3)]Gal(b1-4)[Fuc(a1-3)]GlcNAc
# Method in brief: as §1
# [7] = target: Fuc(a1-2)[Gal(a1-3)]Gal(b1-4)[Fuc(a1-3)]GlcNAc(b1-3)GalNAc
# Method in brief: as §1
# [8] = target: Fuc(a1-2)[Gal(a1-4)]Gal(b1-4)GlcNAc
# Method in brief: as §1
# [9] = target: Fuc(a1-2)[GalNAc(a1-3)]Gal
# Method in brief: as §1
# [10] = target: Fuc(a1-2)[GalNAc(a1-3)]Gal(b1-3)GalNAc(a1-3)[Fuc(a1-2)]Gal(b1-4)GlcNAc
# Method in brief: as §1
# [11] = target: Fuc(a1-2)[GalNAc(a1-3)]Gal(b1-3)GalNAc(b1-3)Gal(a1-4)Gal(b1-4)Glc
# Method in brief: as §1
# [12] = target: Fuc(a1-2)[GalNAc(a1-3)]Gal(b1-3)GlcNAc
# Method in brief: as §1
# [13] = target: Fuc(a1-2)[GalNAc(a1-3)]Gal(b1-3)GlcNAc(b1-2)Man(a1-3)[Fuc(a1-2)[GalNAc(a1-3)]Gal(b1-3)GlcNAc(b1-2)Man(a1-6)]Man(b1-4)GlcNAc(b1-4)GlcNAc
# Method in brief: as §1
# [14] = target: Fuc(a1-2)[GalNAc(a1-3)]Gal(b1-3)GlcNAc(b1-2)Man(a1-3)[Fuc(a1-2)[GalNAc(a1-3)]Gal(b1-3)GlcNAc(b1-2)Man(a1-6)]Man(b1-4)GlcNAc(b1-4)[Fuc(a1-6)]GlcNAc
# Method in brief: as §1
# [15] = target: Fuc(a1-2)[GalNAc(a1-3)]Gal(b1-3)GlcNAc(b1-3)GalNAc
# Method in brief: as §1
# [16] = target: Fuc(a1-2)[GalNAc(a1-3)]Gal(b1-3)GlcNAc(b1-6)GalNAc
# Method in brief: as §1
# [17] = target: Fuc(a1-2)[GalNAc(a1-3)]Gal(b1-4)Glc
# Method in brief: as §1
# [18] = target: Fuc(a1-2)[GalNAc(a1-3)]Gal(b1-4)GlcNAc
# Method in brief: as §1
# [19] = target: Fuc(a1-2)[GalNAc(a1-3)]Gal(b1-4)GlcNAc(b1-2)Man
# Method in brief: as §1
# [20] = target: Fuc(a1-2)[GalNAc(a1-3)]Gal(b1-4)GlcNAc(b1-2)Man(a1-3)[Fuc(a1-2)[GalNAc(a1-3)]Gal(b1-4)GlcNAc(b1-2)Man(a1-6)]Man(b1-4)GlcNAc(b1-4)GlcNAc
# Method in brief: as §1
# [21] = target: Fuc(a1-2)[GalNAc(a1-3)]Gal(b1-4)GlcNAc(b1-2)Man(a1-3)[Fuc(a1-2)[GalNAc(a1-3)]Gal(b1-4)GlcNAc(b1-2)Man(a1-6)]Man(b1-4)GlcNAc(b1-4)[Fuc(a1-6)]GlcNAc
# Method in brief: as §1
# [22] = target: Fuc(a1-2)[GalNAc(a1-3)]Gal(b1-4)GlcNAc(b1-3)Gal(b1-4)GlcNAc
# Method in brief: as §1
# [23] = target: Fuc(a1-2)[GalNAc(a1-3)]Gal(b1-4)GlcNAc(b1-3)Gal(b1-4)GlcNAc(b1-3)Gal(b1-4)GlcNAc
# Method in brief: as §1
# [24] = target: Fuc(a1-2)[GalNAc(a1-3)]Gal(b1-4)GlcNAc(b1-3)GalNAc
# Method in brief: as §1
# [25] = target: Fuc(a1-2)[GalNAc(a1-3)]Gal(b1-4)GlcNAc(b1-3)[Fuc(a1-2)[GalNAc(a1-3)]Gal(b1-4)GlcNAc(b1-6)]GalNAc
# Method in brief: as §1
# [26] = target: Fuc(a1-2)[GalNAc(a1-3)]Gal(b1-4)GlcNAc(b1-6)GalNAc
# Method in brief: as §1
# [27] = target: Fuc(a1-2)[GalNAc(a1-3)]Gal(b1-4)[Fuc(a1-3)]GlcNAc
# Method in brief: as §1
# [28] = target: Fuc(a1-2)[GalNAc(a1-3)]Gal(b1-4)[Fuc(a1-3)]GlcNAc(b1-3)GalNAc
# Method in brief: as §1
# [29] = target: Fuc(a1-2)[GalNAc(a1-4)]Gal(b1-4)GlcNAc
# Method in brief: as §1
# [30] = target: Fuc(a1-2)[GalNAc(b1-3)]Gal
# Method in brief: as §1
# Fuc(a1-3)GlcNAc = target: Fuc(a1-3)GlcNAc
# Method in brief: as §1
# [31] = target: Fuc(a1-3)[Gal(b1-4)]Glc6S
# Method in brief: as §1
# [32] = target: Fuc(a1-3)[Gal(b1-4)]GlcNAc
# Method in brief: as §1
# [33] = target: Fuc(a1-3)[Gal(b1-4)]GlcNAc(b1-2)Man
# Method in brief: as §1
# [34] = target: Fuc(a1-3)[Gal(b1-4)]GlcNAc(b1-2)Man(a1-3)[Fuc(a1-3)[Gal(b1-4)]GlcNAc(b1-2)Man(a1-6)]Man(b1-4)GlcNAc(b1-4)GlcNAc
# Method in brief: as §1
# [35] = target: Fuc(a1-3)[Gal(b1-4)]GlcNAc(b1-2)Man(a1-3)[Fuc(a1-3)[Gal(b1-4)]GlcNAc(b1-2)Man(a1-6)]Man(b1-4)GlcNAc(b1-4)[Fuc(a1-6)]GlcNAc
# Method in brief: as §1
# [36] = target: Fuc(a1-3)[Gal(b1-4)]GlcNAc(b1-3)Gal(b1-3)[Fuc(a1-4)]GlcNAc
# Method in brief: as §1
# [37] = target: Fuc(a1-3)[Gal(b1-4)]GlcNAc(b1-3)Gal(b1-4)[Fuc(a1-3)]GlcNAc
# Method in brief: as §1
# [38] = target: Fuc(a1-3)[Gal(b1-4)]GlcNAc(b1-3)Gal(b1-4)[Fuc(a1-3)]GlcNAc(b1-3)Gal(b1-4)[Fuc(a1-3)]GlcNAc
# Method in brief: as §1
# [39] = target: Fuc(a1-3)[Gal(b1-4)]GlcNAc(b1-3)GalNAc
# Method in brief: as §1
# [40] = target: Fuc(a1-3)[Gal(b1-4)]GlcNAc(b1-6)GalNAc
# Method in brief: as §1
# [41] = target: Fuc(a1-3)[Gal(b1-4)]GlcNAc(b1-6)[Gal(b1-3)GlcNAc(b1-3)]Gal(b1-4)Glc
# Method in brief: as §1
# [42] = target: Fuc(a1-3)[Gal(b1-4)]GlcNAc6S
# Method in brief: as §1
# [43] = target: Fuc(a1-3)[Gal3S(b1-4)]Glc
# Method in brief: as §1
# [44] = target: Fuc(a1-3)[Gal3S(b1-4)]GlcNAc
# Method in brief: as §1
binder,measurement,setting,value
B1,glycan array binding signal (z-score),[1],0.706
same,glycan array binding signal (z-score),[2],-0.289
same,glycan array binding signal (z-score),[3],0.186
same,glycan array binding signal (z-score),[4],-0.168
same,glycan array binding signal (z-score),[5],-0.445
same,glycan array binding signal (z-score),[6],-0.086
same,glycan array binding signal (z-score),[7],0.296
same,glycan array binding signal (z-score),[8],-0.09
same,glycan array binding signal (z-score),[9],-0.251
same,glycan array binding signal (z-score),[10],-0.22
same,glycan array binding signal (z-score),[11],-0.343
same,glycan array binding signal (z-score),[12],0.443
same,glycan array binding signal (z-score),[13],-0.328
same,glycan array binding signal (z-score),[14],0.54
same,glycan array binding signal (z-score),[15],-0.111
same,glycan array binding signal (z-score),[16],-0.423
same,glycan array binding signal (z-score),[17],-0.322
same,glycan array binding signal (z-score),[18],-0.293
same,glycan array binding signal (z-score),[19],-0.372
same,glycan array binding signal (z-score),[20],-0.09
same,glycan array binding signal (z-score),[21],0.307
same,glycan array binding signal (z-score),[22],-0.272
same,glycan array binding signal (z-score),[23],-0.371
same,glycan array binding signal (z-score),[24],-0.402
same,glycan array binding signal (z-score),[25],-0.189
same,glycan array binding signal (z-score),[26],-0.369
same,glycan array binding signal (z-score),[27],0.011
same,glycan array binding signal (z-score),[28],0.418
same,glycan array binding signal (z-score),[29],-0.194
same,glycan array binding signal (z-score),[30],-0.125
same,glycan array binding signal (z-score),Fuc(a1-3)GlcNAc,0.079
same,glycan array binding signal (z-score),[31],0.311
same,glycan array binding signal (z-score),[32],-0.325
same,glycan array binding signal (z-score),[33],-0.351
same,glycan array binding signal (z-score),[34],-0.293
same,glycan array binding signal (z-score),[35],-0.085
same,glycan array binding signal (z-score),[36],-0.135
same,glycan array binding signal (z-score),[37],0.087
same,glycan array binding signal (z-score),[38],-0.316
same,glycan array binding signal (z-score),[39],-0.358
same,glycan array binding signal (z-score),[40],-0.192
same,glycan array binding signal (z-score),[41],-0.355
same,glycan array binding signal (z-score),[42],0.012
same,glycan array binding signal (z-score),[43],0.277
same,glycan array binding signal (z-score),[44],-0.102

# Reference: the supplement of paper PMC8728848
